Test results reported in the supplement of paper PMC3334620.
In all, about 33,000 sequences were measured (“E-score (-0.5 to 0.5)”: median about -0.043, highest 2% from about 0.37 on). Some of the results follow.

The sequences below were run against T1, Upc2 (UniProt Q12151) (assay: PBM E-score (8-mer binding enrichment) (E-score (-0.5 to 0.5)); higher = stronger / more preferred TF binding; most listed sequences are background and not binding sites). Settings: protein concentration: 200 nM; construct: GST-full length.
T1 sequence: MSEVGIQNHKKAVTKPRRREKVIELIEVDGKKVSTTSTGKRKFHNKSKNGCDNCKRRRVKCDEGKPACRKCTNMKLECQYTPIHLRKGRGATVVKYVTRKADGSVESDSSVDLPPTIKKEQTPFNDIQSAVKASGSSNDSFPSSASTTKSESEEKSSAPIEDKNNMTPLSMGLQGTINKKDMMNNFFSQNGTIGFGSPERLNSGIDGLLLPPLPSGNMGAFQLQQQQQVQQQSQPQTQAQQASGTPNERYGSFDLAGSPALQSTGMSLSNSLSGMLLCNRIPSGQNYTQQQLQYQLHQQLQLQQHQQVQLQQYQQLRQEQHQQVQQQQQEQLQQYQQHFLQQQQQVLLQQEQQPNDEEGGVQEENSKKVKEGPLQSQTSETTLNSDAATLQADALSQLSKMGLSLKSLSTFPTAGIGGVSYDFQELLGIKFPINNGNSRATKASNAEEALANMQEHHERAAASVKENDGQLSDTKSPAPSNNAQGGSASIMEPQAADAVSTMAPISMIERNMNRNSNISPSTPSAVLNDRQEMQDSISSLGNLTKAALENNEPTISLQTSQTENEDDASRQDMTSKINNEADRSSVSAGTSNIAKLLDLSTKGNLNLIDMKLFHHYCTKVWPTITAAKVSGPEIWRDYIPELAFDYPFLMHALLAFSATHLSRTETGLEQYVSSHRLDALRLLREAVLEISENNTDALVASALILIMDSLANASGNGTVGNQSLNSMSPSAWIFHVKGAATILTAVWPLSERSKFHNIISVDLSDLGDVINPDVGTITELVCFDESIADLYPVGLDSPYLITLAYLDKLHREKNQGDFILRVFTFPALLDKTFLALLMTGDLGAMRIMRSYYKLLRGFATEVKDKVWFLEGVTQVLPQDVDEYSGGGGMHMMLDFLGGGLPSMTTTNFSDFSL
Procedure, shortened: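 E-scores (a modified Wilcoxon-Mann-Whitney statistic) were assigned by the Universal PBM Analysis Suite to every ungapped eight-base word pooled with its reverse complement. The input came from universal all-10-mer Agilent arrays made double-stranded by primer extension and probed with GST-tagged yeast transcription factors at about 100-200 nM. Fluorescent anti-GST detected bound protein, and masliner normalised the scans.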

Going from AAAACTAT to AGTAAAGA, the “PBM E-score” value falls from 0.0662 to -0.212.

Compared with AATTTATC, ACCTGGAC is lower in “PBM E-score” value: 0.131 for the first, -0.117 for the second.

Compared with GAACACCC, GCGACAGA is higher in “PBM E-score” value: -0.0871 for the first, 0.0959 for the second.

First: TTGTACAA
Second: AGGTAAAA
The “PBM E-score” value of the first is lower: -0.0904 for the first, -0.0257 for the second.

Compared with GCAGCTGA, AATCTTTG is higher in “PBM E-score” value: -0.0798 for the first, -0.00611 for the second.

First: CTACAAAA
Second: TGCTCCCA
The “PBM E-score” value of the first is higher: -0.00752 for the first, -0.102 for the second.

Compared with GGGTGCCA, CTAGGTCC is lower in “PBM E-score” value: -0.0881 for the first, -0.178 for the second.

Compared with AGCCACCG, ATAGCAGA is lower in “PBM E-score” value: -0.0677 for the first, -0.181 for the second.

Going from AAGCCGCA to AGCCAAGC, the “PBM E-score” value falls from 0.00957 to -0.176.

Going from GCTCTCAA to GATTCCCC, the “PBM E-score” value falls from 0.00868 to -0.214.

Going from AACTGTTG to GAAGTCGA, the “PBM E-score” value rises from -0.239 to 0.0181.

First: ATGGTTTG
Second: GAAAGGCC
The “PBM E-score” value of the first is lower: -0.173 for the first, -0.0769 for the second.

Compared with GGGAACCA, CTGGTACA is higher in “PBM E-score” value: -0.165 for the first, -0.0228 for the second.

Going from GGGGACTA to CAAAACAG, the “PBM E-score” value rises from -0.213 to -0.00045.

Going from ACAGCAAA to CGTGGAAA, the “PBM E-score” value rises from 0.0434 to 0.105.

Going from AGAGCATA to CGCAGCAC, the “PBM E-score” value falls from -0.0221 to -0.151.

First: AATATGGG
Second: CTTGCTCA
The “PBM E-score” value of the first is lower: -0.145 for the first, -0.088 for the second.

Going from ACATACAT to GCCGGAAC, the “PBM E-score” value falls from 0.0735 to 0.068.

First: ACATTTCA
Second: ATAGTTCA
The “PBM E-score” value of the first is lower: -0.0769 for the first, 0.0788 for the second.

First: AATCCCGA
Second: ATAATGCA
The “PBM E-score” value of the first is lower: 0.00486 for the first, 0.0533 for the second.

Compared with ACACCCGG, AGTTGCAT is lower in “PBM E-score” value: -0.0265 for the first, -0.0885 for the second.

Compared with CGTCTGCC, ATTCTTGC is lower in “PBM E-score” value: -0.0857 for the first, -0.0884 for the second.

Compared with GCTCGGAC, AAGACCAG is lower in “PBM E-score” value: -0.027 for the first, -0.28 for the second.

First: AACTACGC
Second: GTCCACAC
The “PBM E-score” value of the first is lower: 0.0049 for the first, 0.0279 for the second.

Compared with GATATATC, ACTGAGTA is higher in “PBM E-score” value: -0.218 for the first, -0.12 for the second.

Compared with CTGGAATA, AACAGGCA is higher in “PBM E-score” value: -0.0632 for the first, -0.00891 for the second.

Compared with GTCACCCA, CTTACACA is higher in “PBM E-score” value: -0.224 for the first, -0.0896 for the second.

Compared with CGTTTAGA, GAGCGCCA is lower in “PBM E-score” value: 0.466 for the first, -0.114 for the second.

Going from GTAGCAAC to CACGTTGG, the “PBM E-score” value falls from 0.0694 to -0.234.

First: ACGGCGCG
Second: ACTCCATA
The “PBM E-score” value of the first is higher: 0.259 for the first, -0.144 for the second.

Going from ATAGCCGC to CGTCGACC, the “PBM E-score” value rises from -0.209 to 0.0651.

First: CACCGCAG
Second: AAGGTTCT
The “PBM E-score” value of the first is lower: -0.217 for the first, -0.0176 for the second.

Compared with CTATGTCC, CCTGGTTC is higher in “PBM E-score” value: -0.24 for the first, -0.0512 for the second.

Compared with AAGAAAAC, ATATCGAA is lower in “PBM E-score” value: 0.104 for the first, 0.0025 for the second.

Going from ATACGGAC to ACGATCTC, the “PBM E-score” value falls from 0.394 to 0.237.

Compared with CAGCGGGA, AGAAAATC is higher in “PBM E-score” value: -0.319 for the first, 0.0457 for the second.

Compared with ACGATTTC, AGATCGAT is lower in “PBM E-score” value: 0.256 for the first, -0.212 for the second.

Going from ACACACCG to AGTCTCTG, the “PBM E-score” value falls from 0.157 to -0.0489.

First: ATCAAGTC
Second: ACCCACAG
The “PBM E-score” value of the first is higher: -0.0287 for the first, -0.0427 for the second.

Going from CGCGAATA to CAGAAATC, the “PBM E-score” value falls from 0.213 to -0.119.

First: CAGACGTC
Second: CCGTGAAC
The “PBM E-score” value of the first is lower: -0.277 for the first, 0.146 for the second.

Compared with CGATTTTA, GCCGCAAA is lower in “PBM E-score” value: 0.116 for the first, 0.0539 for the second.

Compared with TATTAGAA, ACCCTAAA is higher in “PBM E-score” value: 0.0328 for the first, 0.133 for the second.

Compared with AGGAAAAA, CCCATGGG is lower in “PBM E-score” value: -0.00064 for the first, -0.199 for the second.

Compared with GTATACTA, GCAGGTAC is lower in “PBM E-score” value: 0.282 for the first, -0.048 for the second.

Going from ACCATGGG to ATGCTACC, the “PBM E-score” value rises from -0.262 to -0.235.

Going from AAAGCGAT to CGCTACAG, the “PBM E-score” value falls from 0.103 to -0.105.

Going from ATTCGATA to GGAAAAAA, the “PBM E-score” value rises from 0.0034 to 0.0801.

Compared with CAAGACGC, CACCAAGG is lower in “PBM E-score” value: -0.147 for the first, -0.286 for the second.

First: GAGAAAAA
Second: TCCGGTAA
The “PBM E-score” value of the first is lower: -0.0102 for the first, 0.0119 for the second.

Compared with CGTAATGC, AATACCTA is lower in “PBM E-score” value: 0.15 for the first, -0.101 for the second.

Compared with TCAAGAAA, AGAAGCAT is lower in “PBM E-score” value: 0.047 for the first, -0.165 for the second.

First: GAGACATC
Second: GACTACTA
The “PBM E-score” value of the first is higher: 0.0481 for the first, -0.05 for the second.

Compared with CATGCGGG, CAAGCGTC is higher in “PBM E-score” value: -0.214 for the first, -0.159 for the second.

First: AGGCGGGA
Second: ATGGCTAC
The “PBM E-score” value of the first is lower: -0.277 for the first, 0.151 for the second.

Compared with AAGAAAAT, CAGGTACG is higher in “PBM E-score” value: 0.15 for the first, 0.396 for the second.

Going from CGCAATCA to CTATAAGC, the “PBM E-score” value rises from -0.182 to 0.0678.

First: CAGTGAAC
Second: CAGGTGTA
The “PBM E-score” value of the first is higher: 0.019 for the first, -0.00306 for the second.

First: GCGCGGAA
Second: GCTGCGTA
The “PBM E-score” value of the first is lower: -0.0233 for the first, 0.22 for the second.

Going from GTCCAATA to GAAGGGCC, the “PBM E-score” value falls from -0.00904 to -0.15.

Going from GAGACGCA to GCCTGCGC, the “PBM E-score” value falls from -0.0494 to -0.271.

Going from ACACCGGA to GACGTAAA, the “PBM E-score” value rises from -0.0917 to 0.228.

Compared with GTAACCAA, ACTTTCAA is lower in “PBM E-score” value: 0.041 for the first, -0.00015 for the second.

First: GATAAGAC
Second: ACTTCGTG
The “PBM E-score” value of the first is lower: 0.0241 for the first, 0.0872 for the second.

Compared with CGAAAATC, TATCGTCA is lower in “PBM E-score” value: 0.146 for the first, 0.0773 for the second.

Compared with ACGCGGCT, AGCTACAT is lower in “PBM E-score” value: 0.163 for the first, -0.0994 for the second.

First: AGTACCTG
Second: CCATTCTA
The “PBM E-score” value of the first is higher: -0.0657 for the first, -0.068 for the second.

Going from TCAAGCAA to AGCCGACG, the “PBM E-score” value rises from -0.139 to 0.00221.

First: CTTCGGGA
Second: CCGCGTGA
The “PBM E-score” value of the first is higher: 0.058 for the first, -0.00343 for the second.

Compared with CGAGATCA, CCACTCCA is lower in “PBM E-score” value: 0.203 for the first, -0.12 for the second.

Compared with CATTGCCA, AACCCCAA is lower in “PBM E-score” value: 0.00823 for the first, -0.139 for the second.

Compared with ATTCCAGG, ACCTGTAC is higher in “PBM E-score” value: -0.316 for the first, 0.242 for the second.

First: CCCGTCCA
Second: AGACCTCG
The “PBM E-score” value of the first is lower: -0.00605 for the first, 0.213 for the second.

First: GATAAGTA
Second: CCATAGTC
The “PBM E-score” value of the first is higher: 0.0858 for the first, -0.323 for the second.

Compared with GAATGGTC, ACAATGGT is lower in “PBM E-score” value: -0.0557 for the first, -0.315 for the second.

Going from AAGCGATT to CGAACGAC, the “PBM E-score” value rises from 0.189 to 0.401.

Compared with CCTGACAA, AGGCTGTC is higher in “PBM E-score” value: -0.108 for the first, -0.015 for the second.

First: TACGGCAA
Second: CCAGGGTC
The “PBM E-score” value of the first is higher: 0.327 for the first, -0.103 for the second.

Going from GATCCGCA to CCCGCATC, the “PBM E-score” value rises from -0.165 to 0.00411.

First: AGTAAGCA
Second: CAACCTTC
The “PBM E-score” value of the first is lower: -0.157 for the first, -0.138 for the second.

First: GCTTTTCC
Second: TCTCGCAA
The “PBM E-score” value of the first is lower: 0.0253 for the first, 0.148 for the second.

First: GAGCATCA
Second: TCTGATCA
The “PBM E-score” value of the first is higher: -0.142 for the first, -0.317 for the second.

Going from GAGGGCTA to AGCTCCTA, the “PBM E-score” value rises from -0.178 to -0.154.

Compared with CTATGCGC, AGCCGTCC is lower in “PBM E-score” value: -0.0498 for the first, -0.129 for the second.

Going from ACATCCAC to AAAAATAG, the “PBM E-score” value falls from 0.101 to -0.0252.

First: AATGGTAC
Second: GGTGCTGA
The “PBM E-score” value of the first is higher: 0.105 for the first, -0.218 for the second.
